Hit rate of the full screen: of about 410,000 compounds, about 530 (0.13%) were called active. The inconclusive results got no clear call from the source; some entries with a clear call stand among them for comparison. Calls come from the whole dose curve; as a rule, active = well fitted inhibition curve with a large enough effect; inconclusive = small, poorly fitted or top-dose-only effect, or another doubt; inactive = no such curve, though single readings can be large or run the other way. Potencies beside an inconclusive call are fits to weak or partial responses and may not hold up.
assay: qHTS of GLP-1 Receptor Inverse Agonists: Cytotox Screen; conditions: HEK293 cAMP-luciferase reporter cells, luminescence, 24 h; activity change, negative = inhibition: at 38.3 µM (top of the series) unless noted
How it was run: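 A 23 nL compound transfer followed 12 hours of cell culture at 37 deg C; exposure then lasted 24 hr. Luciferase assay detection reagent was dispensed and plates read for luminescence after a 12 min room-temperature wait.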
% is set by controls: 0 for no effect and ±100 for the full control effect; potency is the fitted concentration of half-maximal effect.

SMILES	Potency	activity change, negative = inhibition
O=C(COc1ccccc1/C=C1\SC(=S)NC1=O)Nc1ccc(F)cc1	inconclusive: 8.91 µM [inhibitor, partial curve, poor fit]	–
O=C(CN1CCC(O)(c2ccccc2F)CC1)NCCc1c[nH]c2ccccc12	inconclusive: 2 µM [inhibitor, full curve, poor fit]	–
COc1ccccc1N/N=C(\C#N)C(=N)N1CCOCC1	inconclusive: 5.62 µM [inhibitor, partial curve]	–
C=CCc1cccc(/C=N/NC(=O)C(C)Nc2cccc(C)c2)c1O (centres undefined)	inconclusive: 6.31 µM [inhibitor, partial curve, poor fit]	–
CC(=O)Nc1ccc2c(c1)Cc1cc(N3C(=O)C=CC3=O)ccc1-2	inconclusive: 11.2 µM [inhibitor, single point]	–
COc1ccc(C(=O)Nc2nc(-c3cccs3)cs2)cc1	inconclusive: 31.6 µM [inhibitor, single point]	–
O=C(CN1CCN(Cc2ccccc2)CC1)Nc1ccc([N+](=O)[O-])cc1C(=O)Nc1ccccc1F	inconclusive: 12.6 µM [inhibitor, partial curve, poor fit]	–
Cc1ccccc1CN1c2ccccc2-c2nc(SCC(=O)c3ccccc3)ncc2S1(=O)=O	inconclusive: 31.6 µM [inhibitor, single point]	–
COCCN(Cc1nc(-c2ccc(-c3ccccc3)cc2)oc1C)C(C)C	inconclusive: 28.2 µM [inhibitor, single point]	–
CC1CCCCN1CCCNC(=O)c1cc(Sc2cccc(Cl)c2)nc2ccccc12 (centres undefined)	inactive	–
c1ccc2c(c1)N1CCN=C1N2CCN1CCCCC1	inconclusive: 11.2 µM [inhibitor, partial curve, poor fit]	–
CC1CCCCN1CCNC(=O)c1ccc2c(=O)n(Cc3ccc(Cl)cc3)c(=S)[nH]c2c1 (centres undefined)	inconclusive: 28.2 µM [inhibitor, single point]	–
CCOc1c(Cl)cc(/C=N/NC(N)=S)cc1OC	inconclusive: 22.4 µM [inhibitor, single point]	–
CCOc1ccccc1NC(=O)C(NCC1(N2CCCCC2)CCCCC1)c1ccccc1 (centres undefined)	inconclusive: 11.2 µM [inhibitor, single point]	–
Cc1nc2c(C)cccc2cc1C(=O)N/N=C/c1cccc([N+](=O)[O-])c1	inconclusive: 28.2 µM [inhibitor, single point]	–
Cc1ccccc1OCc1nc2c3cnn(-c4cccc(F)c4)c3ncn2n1	inactive	–
Cc1ccc(C(CC(=O)O)NC(=O)CCNC(=O)c2ccco2)cc1 (centres undefined)	inconclusive: 28.2 µM [inhibitor, single point]	–
Cn1c(=O)n(C)c2cc([N+](=O)[O-])c(N3CCN(C(=O)c4ccccc4Cl)CC3)cc21	inconclusive: 28.2 µM [inhibitor, single point]	–
COc1cc(C2NC(=O)NC(C)=C2C(=O)Nc2cc(C)cc(C)c2)ccc1O (centres undefined)	inactive	–
CCOC(=O)c1noc2ncnc(N3CCN(c4ccccc4OC)CC3)c12	inconclusive: 5.62 µM [inhibitor, full curve, poor fit]	–
O=C(Cc1c(F)c(F)c(F)c(F)c1F)Nc1nc(-c2ccccc2)cs1	inconclusive: 10 µM [inhibitor, single point]	–
COc1ccccc1/C=C/C(=O)NC(=S)N(C)C1CCCCC1	inconclusive: 10 µM [inhibitor, partial curve]	–

SMILES	Potency	activity change, negative = inhibition
S=C(NCc1ccccc1)NC1CCSc2ccccc21 (centres undefined)	inconclusive: 28.2 µM [inhibitor, single point]	–
c1coc(CNc2nc(N3CCCCC3)nc3ccccc23)c1	inconclusive: 25.1 µM [inhibitor, single point]	–
CN(C)c1ccc(/C=C/c2ccc3c4ccccc4ccc3[n+]2-c2ccccc2)cc1	active: 7.94 µM	–
CC1CCN(c2c(NCc3ccc(C(=O)N4CCc5ccccc54)cc3)c(=O)c2=O)CC1	inconclusive: 2 µM [inhibitor, full curve, poor fit]	–
O=C(Nc1ccc2c(c1)[C@@H]1C[C@@H](CC(=O)N3CCOCC3)O[C@@H](CO)[C@@H]1O2)NC1CCCC1	inactive	–
O=[N+]([O-])c1ccccc1OCCCn1cnc2ccccc21	–	inactive: -0.443% [at 7.66 µM]
COc1ccc(N=C2S/C(=C\c3ccc(OC(C)C(=O)O)c(OC)c3)C(=O)N2CCc2c[nH]c3ccccc23)cc1 (centres undefined)	inconclusive: 15.8 µM [inhibitor, single point]	–
C[C@H](CO)N1C[C@H](C)[C@@H](CN(C)S(=O)(=O)c2cccs2)Oc2c(NC(=O)Nc3ccc4c(c3)OCO4)cccc2C1=O	inconclusive: 28.2 µM [inhibitor, single point]	–
Clc1ccccc1OCCCCn1ccnc1	inactive	–
N#Cc1cc(Oc2cccc3cccnc23)c(-n2nnc3ccccc32)cc1C#N	inactive	–
COCCNC(=S)N1CCc2cc(OC)c(OC)cc2C1COc1cc(C)cc(C)c1 (centres undefined)	inactive	–
CN1CC(c2ccccc2)C2(SC(=S)N(Cc3ccco3)C2=O)C12C(=O)Nc1ccccc12 (centres undefined)	inconclusive: 20 µM [inhibitor, single point]	–
NC(=S)N/N=C/c1ccccc1OC(=O)c1cc2ccccc2oc1=O	inconclusive: 1.78 µM [inhibitor, full curve, poor fit]	–
COc1ccc(/C=C/C(=O)O/N=C(\N)c2ccccn2)cc1OC	inconclusive: 2.51 µM [inhibitor, partial curve, poor fit]	–
COc1ccccc1C1c2ccc3ccccc3c2Oc2ncn(CCN(C)C)c(=N)c21 (centres undefined)	inconclusive: 6.31 µM [inhibitor, partial curve, poor fit]	–
CCOC(=O)c1c(C)[nH]c(N=Nc2ccccc2)c1C	inconclusive: 8.91 µM [inhibitor, partial curve, poor fit]	–
C=CC[C@H](CC(=O)NCCO)C(=O)N[C@H](COC(=O)[C@@H](CC=C)Cc1ccc(F)cc1)Cc1ccccc1	inconclusive: 3.98 µM [inhibitor, full curve, poor fit]	–
CC(=Nc1cccc(O)c1)c1sc2ccccc2c1O	inactive	–
O=C(Nc1ccc(Br)cn1)c1cccc(S(=O)(=O)N2CCCC2)c1	inactive	–
Cc1ccc(OCc2nc3ccccc3n2CC(C)C)cc1	inactive	–
Cc1nn2c(NCc3ccccn3)c3c(nc2c1-c1ccccc1)CCC3	inconclusive: 0.316 µM [inhibitor, full curve, poor fit]	–
OC(CNCCc1ccc(C(F)(F)F)cc1)COC(c1ccccc1)c1ccccc1 (centres undefined)	inconclusive: 28.2 µM [inhibitor, single point]	–

SMILES	Potency	activity change, negative = inhibition
COc1ccc(C(O)(CCC(C)C)C(CN2CCOCC2)c2ccc(Cl)cc2)cc1 (centres undefined)	inconclusive: 28.2 µM [inhibitor, single point]	–
CC(C)(C)c1ccc(C(=O)NC(=S)N2CCOCC2)cc1	inconclusive: 5.62 µM [inhibitor, full curve, poor fit]	–
O=C(c1ccc(-c2ccccc2)cc1)N1CCN(c2ccccn2)CC1	inactive	–
CCN(CC)Cc1c(C(=O)N/N=C/c2ccco2)nnn1-c1nonc1N	inconclusive: 10 µM [inhibitor, partial curve]	–
CC(C)(C)OC(=O)N[C@@H](Cc1ccccc1)C(=O)N[C@@H](CO)[C@H](O)[C@@H]1C[C@@H]1C(=O)NC1CC1	inconclusive: 7.08 µM [inhibitor, partial curve, poor fit]	–
CC1(C(=O)NCc2ccc(Cl)cc2)CCN1C(=O)c1cccc(F)c1 (centres undefined)	inactive	–
Cc1ccc(N=Nc2ccc(O)c3ncccc23)cc1	inconclusive: 31.6 µM [inhibitor, single point]	–
CCC(CC)c1nn2c(N)c(/C=C3\C=Nc4ccccc43)c(=O)nc2s1	inactive	–
CC1(C)CC(=O)C2=C(C1)N=C1c3ccccc3C(=O)C1C2c1ccc(Cl)cc1 (centres undefined)	inconclusive: 10 µM [inhibitor, partial curve]	–
Cc1c(C(C)(C)O)[nH]c2cc(C(F)(F)F)ccc12	inconclusive: 0.501 µM [inhibitor, full curve, poor fit]	–
CC(C)c1ccc(OCCCCN2CCCCC2)cc1	inconclusive: 10 µM [inhibitor, single point]	–
COc1cc(/C=N/NC(=O)C2COc3ccccc3O2)cc(OC)c1OC (centres undefined)	inconclusive: 28.2 µM [inhibitor, single point]	–
Cc1ccc(Oc2cc(NC(=O)CCCn3nc([N+](=O)[O-])cc3C)cc([N+](=O)[O-])c2)cc1	inconclusive: 28.2 µM [inhibitor, single point]	–
CC(C)c1[nH]nc2c1C(Cc1ccccc1)C(C#N)=C(N)O2 (centres undefined)	inconclusive: 2.24 µM [inhibitor, partial curve, poor fit]	–
O=S(=O)(NCCc1csc(-c2ccc(F)cc2)n1)c1ccc(Cl)cc1	inactive	–
Cc1ccc(OCCCn2c(C3CC(=O)N(c4cccc(Cl)c4)C3)nc3ccccc32)c(C)c1 (centres undefined)	inactive	–
Cc1cccc(NS(=O)(=O)c2ccc(C(=O)N3CCN(c4ccccc4O)CC3)cc2)c1C	inconclusive: 28.2 µM [inhibitor, single point]	–
Clc1ccc2nc(-c3ccccn3)c(Nc3ccc4c(c3)OCO4)n2c1	inconclusive: 5.62 µM [inhibitor, full curve, poor fit]	–
O=C(NC1CCCc2c1cnn2-c1ccc(F)cc1F)c1cnccn1 (centres undefined)	inconclusive: 11.2 µM [inhibitor, partial curve, poor fit]	–
Nc1nn(-c2ccccc2)c(N)c1N=Nc1ccccc1F	inconclusive: 12.6 µM [inhibitor, partial curve, poor fit]	–
